Experimental data taken from the supplement of paper PMC9446081.
The campaign covered roughly 39,000 compounds. About 220 (0.56%) showed activity. The list shows a part of the results.

Tested on: Escherichia coli K-12 BW25113
Assay: relative growth (OD600 normalised to plate interquartile mean) (fraction); higher = less growth inhibition, active = 0.2 or less
Settings: 50 µM; LB; incubation time: overnight (16-24 h)
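Further: static incubation at 37 °C against the wild-type strain, values averaged over two biological replicates.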

Compound	relative growth
O=C(NC1CC1)[C@@H]1c2ccccc2C(=O)N(Cc2cc(C(F)(F)F)cc(C(F)(F)F)c2)[C@H]1c1ccc(CO)cc1	inactive: 0.933
COc1ccc(NC(=O)N(C)C[C@@H]2Oc3c(NC(=O)c4ccc(-c5nccs5)cc4)cccc3C(=O)N([C@@H](C)CO)C[C@@H]2C)cc1	inactive: 1.01
Cc1noc(C)c1NC(=O)Nc1cccc2c1O[C@@H](CN(C)S(=O)(=O)c1cn(C)cn1)[C@H](C)CN([C@@H](C)CO)C2=O	inactive: 1
COc1ccc(S(=O)(=O)N(C)C[C@@H]2Oc3cc(-c4ccccc4OC)ccc3S(=O)(=O)N([C@@H](C)CO)C[C@@H]2C)cc1	inactive: 1.05
C[C@H](CO)N1C[C@H](C)[C@H](CN(C)Cc2ccncc2)Oc2c(NC(=O)c3cnccn3)cccc2C1=O	inactive: 0.978
C[C@H]1CN([C@@H](C)CO)C(=O)Cc2cc(NC(=O)CCCCCC(=O)Nc3ccccc3N)ccc2O[C@H]1CN(C)C(=O)Nc1ccc(C(F)(F)F)cc1	inactive: 0.958
CCOCC(O)COc1ccc(NC(=O)CC[S+](C)C)cc1.Cc1ccc(S(=O)(=O)[O-])cc1 (configuration not stated)	inactive: 1.09
C[C@@H]1CN([C@@H](C)CO)C(=O)c2cc(NC(=O)Nc3ccc4c(c3)OCO4)ccc2O[C@@H](C)CCCCO[C@H]1CN(C)C(=O)Cc1ccccc1	inactive: 1.03
CN(C)CC(=O)N[C@@H]1C=C[C@H](CC(=O)NCCN2CCCCC2)O[C@H]1CO	inactive: 0.989
CCOC(=O)CCCCCC(=O)Nc1ccc2c(c1)C(=O)N([C@@H](C)CO)C[C@H](C)[C@H](CN(C)C(=O)Nc1ccc(C(F)(F)F)cc1)OCCCC[C@H](C)O2	inactive: 1.05
CN1CCCN(c2ccccc2CN)CC1	inactive: 1
CC(C)NC(=O)N(C)C[C@@H]1Oc2cc(C#Cc3ccccn3)ccc2S(=O)(=O)N([C@H](C)CO)C[C@H]1C	inactive: 0.96
COc1cc2c(cc1OC)CN(C(=O)[C@H]1[C@@H]3C(=O)O[C@@H](c4ccccc4)[C@@H](c4ccccc4)N3[C@@H](c3ccc(OCCO)cc3)[C@]13C(=O)Nc1ccc(C#CC4(O)CCCCCC4)cc13)CC2	inactive: 1.07
Cc1noc(C)c1NC(=O)Nc1ccc2c(c1)CC(=O)N([C@@H](C)CO)C[C@H](C)[C@H](CN(C)C(=O)NC(C)C)O2	inactive: 0.935
C[C@H](CO)N1C[C@H](C)[C@H](CN(C)S(=O)(=O)c2ccc(Cl)cc2)Oc2c(NC(=O)C3CCOCC3)cccc2C1=O	inactive: 1.01
CC1(C)CC(NC(=O)c2ccc(Cl)c(S(=O)(=O)N(Cc3ccccc3)c3ccccc3)c2)CC(C)(C)N1	inactive: 0.991
COc1cc(NC(=O)CCN2CCC(OC(=O)Nc3ccccc3-c3ccccc3)CC2)c(Cl)cc1CNC[C@H](O)c1ccc(O)c2nc(O)ccc12	inactive: 1
C[C@@H]1CN([C@H](C)CO)C(=O)Cc2cc(NC(=O)Cc3cn(C)c4ccccc34)ccc2O[C@@H]1CN(C)Cc1ccc(-c2ccccc2)cc1	inactive: 1
C[C@@H]1CN([C@@H](C)CO)C(=O)c2cc(NC(=O)C3CCCCC3)ccc2O[C@@H](C)CCCCO[C@@H]1CN(C)Cc1ccc(C(F)(F)F)cc1	inactive: 1.03

Compound	relative growth
C[C@@H]1CCCCO[C@H](CN(C)C(=O)Nc2cccc3ccccc23)[C@@H](C)CN([C@@H](C)CO)C(=O)c2cc(NC(=O)CCC(F)(F)F)ccc2O1	inactive: 1.02
COc1ccc(NC(=O)Nc2ccc3c(c2)C(=O)N([C@H](C)CO)C[C@@H](C)[C@H](CN(C)Cc2ccc(C(=O)O)cc2)OCCCC[C@@H](C)O3)cc1	inactive: 1.01
C[C@@H]1CCCCO[C@H](CN(C)Cc2ccc(C(=O)O)cc2)[C@H](C)CN([C@@H](C)CO)C(=O)c2cc(NC(=O)Nc3ccc(F)cc3)ccc2O1	inactive: 0.975
C[C@@H]1CCCCO[C@@H](CN(C)Cc2ccc(C(=O)Nc3ccccc3N)cc2)[C@@H](C)CN([C@H](C)CO)C(=O)c2cc(NS(=O)(=O)c3ccc(Cl)cc3)ccc2O1	inactive: 0.996
C[C@@H]1CN([C@@H](C)CO)C(=O)c2cc(C#CCN(C)C)cnc2O[C@H]1CN(C)S(=O)(=O)c1cn(C)cn1	inactive: 0.994
Cc1noc(C)c1S(=O)(=O)N(C)C[C@H]1Oc2ccc(NS(=O)(=O)c3cccs3)cc2C(=O)N([C@@H](C)CO)C[C@H]1C	inactive: 1.01
C[C@H](CO)N1C[C@H](C)[C@@H](CN(C)C(=O)c2ccc3c(c2)OCO3)Oc2cc(-c3cncnc3)ccc2S1(=O)=O	inactive: 0.993
NCCS(=O)(=O)N1CCN(c2ccc(F)cc2)CC1	inactive: 0.949
C[C@H](CO)N1C[C@H](C)[C@@H](CN(C)C(=O)NC2CCCCC2)Oc2ccc(NC(=O)c3ccncc3)cc2CC1=O	inactive: 0.964
NC(=O)c1cc2ccccc2oc1=O	inactive: 0.971
O=C(O)C1(Cn2ccnc2)CC1	inactive: 1.01
C[C@H]1CCCCO[C@H](CN(C)Cc2ccccc2)[C@@H](C)CN([C@@H](C)CO)C(=O)c2cc(NC(=O)CCC(F)(F)F)ccc2O1	inactive: 0.981
C[C@H](C(=O)N(C)C[C@@H]1OCc2ccccc2-c2c(n(C)c3ccccc23)C(=O)N([C@H](C)CO)C[C@@H]1C)c1ccccc1	inactive: 0.998
Cc1ccc(S(=O)(=O)N(C)C[C@@H]2OCCCC[C@@H](C)Oc3ccc(NC(=O)Nc4cccc5ccccc45)cc3C(=O)N([C@@H](C)CO)C[C@@H]2C)cc1	inactive: 1.04
C[C@@H]1CCCCO[C@H](CN(C)C(=O)Nc2cccc3ccccc23)[C@H](C)CN([C@@H](C)CO)C(=O)c2cc(NS(=O)(=O)c3ccc(Cl)cc3)ccc2O1	inactive: 1.01
CSc1ccc2cc(CN(C[C@H]3CCCO3)C(=O)c3ccco3)c(N(C)Cc3csc(C)n3)nc2c1	inactive: 1.03
C[C@@H]1CCCCO[C@H](CN(C)Cc2ccc(Cl)c(Cl)c2)[C@H](C)CN([C@@H](C)CO)C(=O)c2cc(NC(=O)Nc3ccccc3)ccc2O1	inactive: 1
COc1ccc(C(=O)Nc2ccc(CN3C(=O)[C@@]4(O[C@@H](CC(=O)N(CCO)Cc5ccccc5)[C@H]([Si](C)(C)c5ccc(OC)cc5)[C@H]4C)c4ccccc43)cc2)cc1	inactive: 1.03
C[C@H](CO)N1C[C@H](C)[C@@H](CN(C)Cc2ccc(Cl)c(Cl)c2)Oc2ccc(NS(=O)(=O)c3ccccc3)cc2CC1=O	inactive: 1.02

Compound	relative growth
COc1ccc(CN(C)C[C@H]2OCCCC[C@@H](C)Oc3ccc(NS(=O)(=O)c4ccc(Cl)cc4)cc3C(=O)N([C@@H](C)CO)C[C@@H]2C)cc1	inactive: 1
Cc1noc(C)c1NC(=O)N(C)C[C@@H]1Oc2ccc(NS(C)(=O)=O)cc2CC(=O)N([C@H](C)CO)C[C@H]1C	inactive: 0.997
C[C@@H]1CCCCO[C@@H](CN(C)Cc2ccccc2)[C@H](C)CN([C@H](C)CO)C(=O)c2cc(NC(=O)Nc3ccc(F)cc3)ccc2O1	inactive: 0.992
C[C@@H]1CN([C@@H](C)CO)C(=O)c2cc(NC(=O)NC3CCCCC3)ccc2O[C@@H](C)CCCCO[C@H]1CN(C)Cc1ccc(C(F)(F)F)cc1	inactive: 1.02
COc1ccc(NC(=O)Nc2ccc3c(c2)C(=O)N([C@@H](C)CO)C[C@@H](C)[C@@H](CN(C)C(=O)Nc2ccc(F)cc2)OCCCC[C@@H](C)O3)cc1	inactive: 1.01
COc1ccc(S(=O)(=O)N(C)C[C@@H]2Oc3ccc(NC(=O)Nc4c(C)noc4C)cc3C(=O)N([C@@H](C)CO)C[C@@H]2C)cc1	inactive: 1.01
C[C@@H]1CN([C@@H](C)CO)C(=O)c2cc(C#CCN(C)C)cnc2O[C@@H]1CN(C)Cc1ccc(C(=O)O)cc1	inactive: 0.986
CC(C)NC(=O)Nc1ccc2c(c1)C(=O)N([C@@H](C)CO)C[C@@H](C)[C@H](CN(C)Cc1ccc(Cl)c(Cl)c1)OCCCC[C@H](C)O2	inactive: 0.994
CCOC(=O)c1c(CN2CCN(c3ccc(C)cc3)CC2)n(-c2ccccc2)c2cc(Br)c(OC)cc12	inactive: 1.02
C[C@@H]1CN([C@H](C)CO)C(=O)c2cc(NC(=O)CCC(F)(F)F)ccc2O[C@H]1CN(C)C(=O)Nc1ccc(C(F)(F)F)cc1	inactive: 0.917
CC1CCC2(C(=O)O)CCC3(C)C(=CCC4C5(C)CC(O)C(O)C(C)(CO)C5C(O)CC43C)C2C1C (configuration not stated)	inactive: 1.11
C[C@H]1[C@H]([Si](C)(C)F)[C@@H](CCO)O[C@]12C(=O)N(Cc1cccc(N3C(=O)COc4ccccc43)c1)c1ccccc12	inactive: 1.01
C[C@H]1CN([C@@H](C)CO)C(=O)Cc2cc(NC(=O)c3ccncc3)ccc2O[C@@H]1CN(C)Cc1ccc(Oc2ccccc2)cc1	inactive: 0.988
Cc1cc(C(=O)Nc2cccc3c2O[C@H](CN(C)S(=O)(=O)c2cn(C)cn2)[C@@H](C)CN([C@H](C)CO)C3=O)n(C)n1	inactive: 0.903
CC(C)NC(=O)Nc1ccc2c(c1)CC(=O)N([C@@H](C)CO)C[C@H](C)[C@@H](CN(C)Cc1ccc(-c3ccccc3)cc1)O2	inactive: 0.98
CC1OC(OC2C(Oc3cc(O)c4c(c3)OC(c3ccc(O)cc3)CC4=O)OC(CO)C(O)C2O)C(O)C(O)C1O (configuration not stated)	inactive: 1.01
O=C(COc1ccc(Cl)cc1Cl)NCCn1ncc2c(=O)n(Cc3cccc([N+](=O)[O-])c3)cnc21	inactive: 1.06
CCc1ccc(NC(=N)N=C(N)N)cc1	inactive: 0.969
COc1ccc(OCC(=O)NCC(=O)O)cc1	inactive: 0.974
